Assay results as given in PubChem BioAssay AID1832 (Broad Institute, 2009).
Hit rate of the full screen: of about 300,000 compounds, about 1,100 (0.37%) were called active. The inconclusive results got no clear call from the source; some entries with a clear call stand among them for comparison.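 Rule for the calls: active = inhibition past about -25% in most replicates, and total fluorescence under double the plate's negative control median (limit read from the data); inconclusive = replicates evenly split on the limit, or fluorescence at least double controls; inactive = too little inhibition in most replicates.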

The molecules below were run against Zinc finger protein mex-5 (Caenorhabditis elegans) (UniProt Q9XUB2) (assay: MEX-5 zinc finger RNA-binding disruptors – biochemical, C. elegans, fluorescence polarization, MLPCN library, primary screen (AID 1832;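 note: 0% = DMSO and -100% = 5 µM competing unlabeled TCR2 RNA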)). Settings: MEX-5/FITC-TCR2 RNA binding, at 10 µM, stronger effect = lower value.
UniProt Q9XUB2, sequence (Q9XUB2 whole entry, looked up): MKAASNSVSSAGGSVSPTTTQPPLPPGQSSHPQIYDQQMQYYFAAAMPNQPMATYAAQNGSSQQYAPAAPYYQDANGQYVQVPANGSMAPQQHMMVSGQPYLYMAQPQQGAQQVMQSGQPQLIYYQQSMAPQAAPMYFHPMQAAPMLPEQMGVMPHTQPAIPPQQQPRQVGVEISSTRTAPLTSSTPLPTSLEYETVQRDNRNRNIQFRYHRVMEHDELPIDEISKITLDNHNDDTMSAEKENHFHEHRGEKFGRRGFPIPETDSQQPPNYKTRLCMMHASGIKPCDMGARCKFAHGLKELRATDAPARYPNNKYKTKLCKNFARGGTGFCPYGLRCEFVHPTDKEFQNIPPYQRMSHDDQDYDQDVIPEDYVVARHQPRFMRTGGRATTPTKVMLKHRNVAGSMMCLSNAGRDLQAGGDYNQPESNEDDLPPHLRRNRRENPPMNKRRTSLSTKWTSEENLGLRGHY

Activity score (negative = inhibition of binding), inactive:
CCc1ccc(-c2csc3[n+]2CCN3C(C)=O)cc1 -1.28%
O=S(=O)(Nc1c(S(=O)(=O)c2ccccc2)c2nc3ccccc3nc2n1C1CCCCC1)c1ccccc1 0.0414%
C=CCOc1cccc(C(=O)N2CCC(CCC(=O)NC3CC3)CC2)c1 0.752%
COC(=O)c1ccc(/C=N/OCC(=O)NCc2ccc(F)cc2)cc1 -0.486%
Cc1cc(O)cc2c(=O)c3ccccc3sc12 0.791%
COc1ccc(C(=O)Nc2ccc(C(=O)N3CCCCC3C)cc2)c(OC)c1OC (centres undefined) 1.06%
O=C(Cn1nc(C(=O)O)c2ccccc2c1=O)Nc1ccc(F)cc1 -2.04%
O=C(c1ccccc1Cl)N(Cc1ccc(Cl)c(Cl)c1)N1C(=O)CCCC1=O -1.07%
Cc1cc(N2CCC(C)CC2)c(F)cc1[N+](=O)[O-] 2.66%
CC1(C)C(C(=O)O)N2C(=O)C(NC(=O)Cc3ccccc3)C2S1=O (centres undefined) 0.157%
CCCC(C)NC(=O)COC(=O)c1cccc(NS(C)(=O)=O)c1 (centres undefined) 1.79%
CCn1cc(C(=O)N(C)CC(OC)OC)c(=O)c2cc(S(=O)(=O)N3CCOCC3)ccc21 -2.72%
O=C(COC(=O)c1ccccc1SCC(=O)N1CCCC1)NCc1ccccc1 -1.65%
Oc1cccc(/C=N/Nc2cc(N3CCOCC3)nc(N3CCOCC3)n2)c1 2.39%
CCCc1cc(=O)oc2c(CNc3ccc(OCC)cc3)c(O)ccc12 -8.97%
O=C(NC(=S)Nc1ccccc1C(=O)O)c1cncc(Br)c1 -1.64%

Activity score (negative = inhibition of binding), inconclusive:
COc1ccc(C(=O)C/C(=C\C(=O)c2ccc(C)cc2)c2ccccc2)cc1 -22.6% [fluorescent]
Fc1ccc(CNc2nc(-c3ccccc3)nc3ccccc23)cc1 -19.7%
CCOC(=O)C1=C(C)N=c2s/c(=C/c3ccc(OCC(=O)O)cc3)c(=O)n2C1c1ccc(SC)cc1 (centres undefined) -14.1% [fluorescent]
FC(F)(F)c1cc(C(F)(F)F)n2nc(-c3sccc3-n3cccc3)cc2n1 -18.8%
CC(C)NC(=O)/C(C#N)=C/c1ccc(N(C)C)o1 60.7% [fluorescent]
COc1cc(OC)c2c(O)c3c(c(-c4c5c(c(O)c6c(OC)cc(OC)cc46)CO[C@@H](C)[C@H]5O)c2c1)[C@H](O)[C@H](C)OC3 -24.7%
COc1ccc2c(c1)c1nc3ccccc3nc1n2CC(=O)OC(C)C -113% [fluorescent]
Oc1ccc(/C=C/c2cc(O)cc(O)c2)cc1 -23.7%
CN(C)Cc1c(O)ccc2c1O/C(=C\C=C\c1ccccc1)C2=O -32.6% [fluorescent]
CCOc1ccccc1N1CCN(C(=O)CNC(=O)c2ccccc2F)CC1 -19.4%
COc1ccc(/C=C(\C#N)C(=O)NCC2CCCO2)cc1OC (centres undefined) -20.5%
N=c1c(C(=O)NCc2ccc(F)cc2)cc2c(=O)n3ccccc3nc2n1Cc1cccnc1 -24.6%
Cc1cc(CC(C)C)n(-c2nc3ccccc3c(=O)n2OCc2ccccc2)n1 -13.3%
CCCCOc1ccc(/C=C2/Sc3ccccc3C2=O)cc1 -18.3%
COc1ccc(/C=N/NC(=O)c2ccc(N(C)S(=O)(=O)c3ccccc3)cc2)cc1 -24.6%
Cc1c(N=C2N=C(NC(=O)Nc3ccc(Cl)cc3)c3ccccc32)c(=O)n(-c2ccccc2)n1C -59.3% [fluorescent]
N=c1n(CC(=O)c2ccc([N+](=O)[O-])cc2)c2ccccc2n1Cc1ccc(Cl)cc1 -11.5%
Oc1[nH]c2ccc(Br)cc2c1N=Nc1ccc(F)cc1 -113% [fluorescent]
CCCc1c(O)nc(SCC(=O)N2CCCCC2)[nH]c1=O -13%
Nc1ccc(-c2c3ccc(=O)cc-3oc3cc(O)ccc23)cc1C(=O)O -104% [fluorescent]
Fc1ccc(NCc2cccnc2)cc1F -24.4%
CCn1c(CNC(=O)c2ccc(Cl)cc2)nnc1SCC(=O)N1CCOCC1 -13%
CC1CN(c2nc3ccccc3nc2C(C#N)C(=O)NC2CCCCC2)CC(C)O1 (centres undefined) -14.8%
N#C/C(=C\c1ccc(N2CCOCC2)o1)C(=O)NC1CCCCC1 70.8% [fluorescent]
Cc1cccn2c(=O)c3cc(C(=O)NCc4ccco4)c(=N)n(C(C)C)c3nc12 -24.3%
Oc1ccc2ccccc2c1C=Nc1ccc(N2CCOCC2)cc1 -14%
O=C(CSCc1c(Cl)cccc1Cl)NCC1CCCO1 (centres undefined) -23.4%
Nc1cccc(N2C(=O)c3cccc4c(N)ccc(c34)C2=O)c1 -129% [fluorescent]
CNc1nnc(-c2cc3ccccc3oc2=O)s1 -20.4%
CCn1cc(/C=C/c2cc[n+](C)cc2)c2ccccc21 42.5% [fluorescent]

Activity score (negative = inhibition of binding), active:
CC(=O)c1cc(NC(=O)c2ccc(Cl)cc2)c(=O)oc1/C=C/N(C)C -26.3%
CSc1nnc(N2C(=O)C(O)=C(C(=O)c3ccco3)C2c2ccccc2)s1 (centres undefined) -39.8%
N#CC1=C(N)C(C#N)(C#N)C(c2cccnc2)C2COCC=C12 (centres undefined) -26%
N#CC1(C#N)C(c2ccccc2)OC23CCCCC2C1(C#N)C(=N)O3 (centres undefined) -48.6%
COc1[nH]c(/N=C/c2ccccc2)c(C#N)c1C#N -59.5%
Cc1cccn2c(=O)c3cc(C(=O)NCCN4CCOCC4)c(=N)n(Cc4cccnc4)c3nc12 -41.6%
CCCNS(=O)(=O)c1ccc(CCC(=O)NCc2ccc3c(c2)OCO3)cc1 -35.6%
CC1=Nc2cccc3cccc(c23)N1C -28.6%
